# Laboratory results reported in PubChem BioAssay AID485294 (National Center for Advancing Translational Sciences (NCATS), 2010).
# The whole screen tested about 370,000 compounds, of which about 150 (0.041%) were called active. Inconclusive results, whose numbers are uncertain, are shown with a selection of clear calls. Calls follow the shape of the dose curve; as a rule, active = well fitted inhibition curve with a large enough effect; inconclusive = small, poorly fitted or top-dose-only effect; inactive = flat fitted curve, though single readings scatter. No potency is given beside an inconclusive call; the fits are too rough.
# Target: Beta-lactamase (Escherichia coli (strain K12)) (UniProt P00811)
# UniProt P00811, sequence (P00811 whole entry, looked up): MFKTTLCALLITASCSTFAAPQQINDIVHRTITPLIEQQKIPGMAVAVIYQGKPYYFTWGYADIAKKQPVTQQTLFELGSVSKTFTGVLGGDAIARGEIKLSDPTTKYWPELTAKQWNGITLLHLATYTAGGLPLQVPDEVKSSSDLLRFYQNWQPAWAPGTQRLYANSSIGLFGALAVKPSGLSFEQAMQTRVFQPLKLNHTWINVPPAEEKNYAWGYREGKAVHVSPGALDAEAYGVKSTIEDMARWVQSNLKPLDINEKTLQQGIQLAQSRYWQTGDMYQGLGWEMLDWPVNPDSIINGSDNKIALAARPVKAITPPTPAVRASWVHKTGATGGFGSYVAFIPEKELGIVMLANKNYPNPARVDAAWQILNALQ
# Test: qHTS Inhibitors of AmpC Beta-Lactamase (assay with detergent); also: nearly all actives have a fitted effect of over 25% in size
# Conditions: AmpC hydrolysis of nitrocefin, absorbance 480 nm, 0.01% Triton; series mostly up to 114 µM
# Method in brief: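 AmpC (5.3 nM in the dispensed reagent) in 20 mM phosphate pH 7.0 with 0.01% (detergent screen) or 0.0001% Triton X-100 was preincubated with compounds for 15 min at room temperature. Nitrocefin was then added from an 800 uM solution, and hydrolysis was followed at 480 nm.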
# Potency is read from the fitted curve at half-maximal effect; tags tell the direction and shape of the fitted curve.
row,SMILES,Potency
1,N/C(=N\OC(=O)c1ccccc1[N+](=O)[O-])c1cccnc1,"inconclusive [inhibitor, full curve, poor fit]"
2,Cn1cccc1Cc1nnc(SCC(N)=O)n1CCc1ccccc1,"inconclusive [inhibitor, full curve, poor fit]"
3,CC1CCCC(C)N1C(=O)c1ccc(S(=O)(=O)NCc2ccco2)cc1 (centres undefined),inactive
4,COc1ccccc1OCC(=O)NNC(=O)c1c(-c2ccccc2Cl)noc1C,"inconclusive [inhibitor, partial curve]"
5,CC(C)(NO)/C(=N/O)c1cccs1,"inconclusive [inhibitor, partial curve]"
6,COc1cccc(/C=N/NC(=O)c2c(C)nc3ccc(Cl)cn23)c1O,inactive
7,O=C(CSc1nncs1)NNC(=O)c1ccco1,"inconclusive [inhibitor, partial curve]"
8,CCCOC(=O)Nc1ccc(N2CCCCC2)cc1,inactive
9,Cc1ccc(C(=O)NC(=S)NCC2CCCO2)cc1Br (centres undefined),inactive
10,COc1ccc(CCNC(=O)c2c([S-])n(-c3ccc(C)cc3)c3cccc[n+]23)cc1,inactive
11,Cc1ccccc1Cn1ccc(NC(=O)c2nn(C)cc2[N+](=O)[O-])n1,"inconclusive [inhibitor, full curve]"
12,Cc1noc(C)c1CSCC(=O)Oc1ccc(N(C)S(=O)(=O)c2ccc(Cl)cc2)cc1,"inconclusive [inhibitor, single point]"
13,Cc1cccc(C)c1NC(=O)CN(c1ccccn1)S(=O)(=O)c1ccccc1,inactive
14,COc1ccc(CCNC(=O)c2c(O)c3cccc4c3n(c2=O)CC4)cc1,"inconclusive [inhibitor, full curve, poor fit]"
15,CC(=O)Nc1cc(C(C)C)c(O)c(C(C)C)c1,"inconclusive [inhibitor, partial curve, poor fit]"
16,O=C1C2CCCN2C(c2ccc(F)cc2)N1c1cccc(Cl)c1 (centres undefined),"inconclusive [inhibitor, full curve, poor fit]"
17,Cc1ccc(S(=O)(=O)/N=C(\CN2CCCCC2)N2CCOCC2)cc1,"inconclusive [inhibitor, full curve, poor fit]"
18,COc1ccc(OC)c(C2C(C(N)=O)=C(C)Nc3nc(CCCO)nn32)c1 (centres undefined),"inconclusive [inhibitor, full curve, poor fit]"
19,O=C(COC(=O)c1cc(Br)ccc1O)NC1CCCCCC1,"inconclusive [inhibitor, full curve]"
20,COc1ccc(CN(C(=O)c2cccs2)C(C(=O)NC2CCCCC2)c2ccc3ncccc3c2)cc1 (centres undefined),inactive
21,Nc1nnc(CCS(=O)(=O)c2ccc(Cl)cc2)s1,"inconclusive [inhibitor, full curve, poor fit]"
22,CCCN(C(=O)CSc1n[nH]c(-c2ccc(OC)cc2)n1)c1c(N)n(Cc2ccccc2)c(=O)[nH]c1=O,"inconclusive [inhibitor, full curve]"
23,CC(=O)Nc1cccc(/C(C)=N/NC(=O)c2cccs2)c1,"inconclusive [inhibitor, full curve, poor fit]"

row,SMILES,Potency
1,COc1ccc(C(=O)N2CCN(c3ccccc3)CC2)cc1S(=O)(=O)NC1CC1,"inconclusive [inhibitor, full curve, poor fit]"
2,COC(=O)c1ccc(C(c2c(N)n(Cc3ccccc3)c(=O)n(C)c2=O)N2CCOCC2)cc1 (centres undefined),inactive
3,O=C(O)c1cc2cc(Oc3ccccc3)ccc2[nH]1,"inconclusive [inhibitor, full curve, poor fit]"
4,CC(C)(C)OC(=O)NCCc1nnc(SCC(=O)Nc2cccc(Cl)c2)o1,"inconclusive [inhibitor, full curve, poor fit]"
5,COc1ccccc1CC(=O)NN1C(=O)NC2(CCC(C)CC2)C1=O (centres undefined),"inconclusive [inhibitor, partial curve, poor fit]"
6,COc1ccc(-n2nc([N+](=O)[O-])c(=NCc3cccnc3)n2O)cc1,inactive
7,Cc1cc(Cl)ccc1OCC(=O)OCC(=O)NC1CCCC1,inactive
8,CCn1c(SCc2nc3ccccc3[nH]2)nnc1-c1cnccn1,"inconclusive [inhibitor, full curve]"
9,COc1ccc(-n2c3c(cc(-c4nc(-c5ccc(C)cc5)cs4)c2=O)C(=O)CC(C)(C)C3)cc1,inactive
10,CN(C)CCCOC(=O)c1ccccc1,"inconclusive [inhibitor, partial curve, poor fit]"
11,O=C(NCc1ccccc1)c1ccco1,"inconclusive [inhibitor, full curve]"
12,CCOC(=O)COc1nc(OC)nc(N2CCOCC2)n1,inactive
13,CCOC(=O)c1nnn(CC(=O)Nc2cc(Cl)ccc2C)c1C(=O)OCC,"inconclusive [inhibitor, full curve, poor fit]"
14,O=C(CSc1ncnc2nc[nH]c12)c1ccc(Cl)cc1,inactive
15,CCCCn1c(N)c(N(CCOC)C(=O)c2cccc(N3C(=O)c4ccccc4C3=O)c2)c(=O)[nH]c1=O,inactive
16,O=C(Nc1ccccc1N1CCN(C(=O)c2ccccc2)CC1)c1ccc([N+](=O)[O-])o1,inactive
17,Cc1ccc(CN2CCCCC2C(=O)Nc2ccc(Oc3cccnc3)cc2)o1 (centres undefined),"inconclusive [inhibitor, full curve, poor fit]"
18,N/C(Cc1ccc(Cl)cc1)=N\OC(=O)C1CCCCC1,"inconclusive [inhibitor, full curve, poor fit]"
19,CCc1nc2ccccc2n1Cc1ccc(OC)c(OC)c1,inactive
20,CC(=O)NN1C(=O)/C(=C/c2ccc(C(C)C)cc2)SC1=S,"inconclusive [inhibitor, full curve]"
21,Cc1cc(OCCCC(=O)N2CCCCC2)cc(C)c1Cl,inactive
22,O=C(NCc1ccc(F)cc1)C1CCCN1C(=O)NCc1ccccc1 (centres undefined),"inconclusive [inhibitor, full curve, poor fit]"
23,O=C(c1ccc(N2CCN(C(=O)c3ccccc3)CC2)cc1)c1cccc(F)c1,"inconclusive [inhibitor, full curve, poor fit]"

row,SMILES,Potency
1,CCCC(=O)NC(Nc1cccc(C(F)(F)F)c1)C(Cl)(Cl)Cl (centres undefined),inactive
2,Cc1ccc(S(=O)(=O)N2CCN(C(=O)COC(=O)c3cc(C)oc3C)CC2)cc1,"inconclusive [inhibitor, full curve, poor fit]"
3,CN(C(=O)c1ccc2c(c1)OCO2)C1(C(=O)NC2CCCC2)CCCCC1,"inconclusive [inhibitor, full curve, poor fit]"
4,Cc1cc(C)cc(OC(=O)c2cc(-c3ccc4c(c3)OCCO4)on2)c1,inactive
5,CC1CCN(C(=O)CN2CCSc3ccc(S(=O)(=O)N(C)C)cc32)CC1,inactive
6,O=C(NC1CCCC1)C(c1ccsc1)N(Cc1ccccc1)C(=O)Cc1cccs1 (centres undefined),"inconclusive [inhibitor, partial curve, poor fit]"
7,CCc1ccc(NC(=O)NCCN2CCc3ccccc3C2)cc1,"inconclusive [inhibitor, partial curve]"
8,Cc1ccc(C)c(NS(=O)(=O)c2ccc(-c3ccc(=O)[nH]n3)o2)c1,"inconclusive [inhibitor, full curve, poor fit]"
9,COC(=O)CCC(=O)N1CCCC(N2CCN(c3cccc(C(F)(F)F)c3)CC2)C1 (centres undefined),"inconclusive [inhibitor, partial curve, poor fit]"
10,Cc1cc(N2CC(C)OC(C)C2)n2cc(-c3ccccc3)nc2n1 (centres undefined),"inconclusive [inhibitor, partial curve]"
11,O=C1C2C3C=CC(CC3)C2C(=O)N1c1ccccc1 (centres undefined),"inconclusive [inhibitor, single point]"
12,CCOc1ccccc1N(CC(=O)Nc1ccc2c(c1)OCCO2)S(C)(=O)=O,"inconclusive [inhibitor, full curve, poor fit]"
13,CCNc1c(NS(=O)(=O)c2ccc(OC)c(Cl)c2)c(=O)oc2ccccc12,"inconclusive [inhibitor, full curve, poor fit]"
14,COc1nc(OC)nc(N(C)CCO)n1,"inconclusive [inhibitor, full curve, poor fit]"
15,COc1ccc(C(=O)NC(=S)Nc2cccc3ncccc23)cc1[N+](=O)[O-],inactive
16,Cc1ccc(C2CC(c3ccccc3)n3ncnc3N2)cc1 (centres undefined),"inconclusive [inhibitor, full curve, poor fit]"
17,COc1ccc(S(=O)(=O)N2CCN(C(=O)c3cccc(Cl)c3)CC2)cc1,"inconclusive [inhibitor, full curve]"
18,O=C(NC(c1ccccc1)c1cc(Cl)c2cccnc2c1O)c1cccnc1 (centres undefined),inactive
19,CCOC(=O)C1=C(C)NC(=O)CC1c1cc(OC)c(OC)cc1Br (centres undefined),"inconclusive [inhibitor, full curve, poor fit]"
20,Clc1ccc(Cl)c2sc(N3CCCC3)nc12,inactive
21,COc1cc(OC)cc(C(=O)Nc2nc(CC(=O)NCc3ccccc3OC)cs2)c1,"inconclusive [inhibitor, full curve, poor fit]"
22,CC(=O)c1cccc(NC(=O)NC2CC(=O)N(c3ccc4c(c3)OCCO4)C2)c1 (centres undefined),"inconclusive [inhibitor, full curve, poor fit]"
23,COc1ccccc1NC(=O)C1=C(C)NC(=O)NC1c1ccc(C)cc1 (centres undefined),"inconclusive [inhibitor, full curve]"
